# Measurements as given in the supplement of paper PMC10037445.
# The full ranking holds about 2,900 compounds; the median of “NF-kB SEAP reporter activity, fold change vs agonist alone” is about 0.99, and the highest 2% start at about 2.6. This is one part of the list.
# Legend:
# [1] = tested on: RAW-Dual; experiment: NF-kB SEAP reporter activity, fold change vs agonist alone; higher = enhanced NF-kB activity
# Method in brief: (§1)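 Cytotoxic wells were those whose IncuCyte confluency was below 70% of agonist controls in both mask sets. The cells were RAW-Dual macrophages at 50,000 cells/well in DMEM on 384-well plates, dosed with 50 nL of library stock by pin tool, stimulated with a PRR agonist 1 h later, and kept at 37 °C, 5% CO2 for 20 hours. IRF and NF-κB reporter activity, as fold change over agonist-alone wells, came from supernatant read by QuantiLuc luminescence and QuantiBlue absorbance, respectively.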
# [2] = tested on: RAW-Dual; experiment: NF-kB SEAP reporter activity, fold change vs agonist alone; cytotoxicity flag (confluency mask): not cytotoxic; higher = enhanced NF-kB activity
# Method in brief: as §1
# [3] = tested on: RAW-Dual; experiment: NF-kB SEAP reporter activity, fold change vs agonist alone; cytotoxicity flag (confluency mask): cytotoxic (confluency <70% of control); higher = enhanced NF-kB activity
# Method in brief: as §1
# [4] = library stock concentration (final ~1000-fold dilution): 10 mM, cytotoxicity flag (confluency mask): not cytotoxic, agonist: Imiquimod (TLR7) […]
# [5] = library stock concentration (final ~1000-fold dilution): 10 mM, cytotoxicity flag (confluency mask): not cytotoxic, agonist: MPLA (TLR4) […]
# [6] = agonist: ODN 1826 (TLR9) 0.5 ug/mL
# [7] = agonist: Pam2CSK4 (TLR2/6) 0.1 ug/mL
# [8] = agonist: Pam3CSK4 (TLR2/1) 0.1 ug/mL
smiles,measurement,setting,value
COc1ccc(C2OCC3C(c4cc(OC)c(OC)c(OC)c4)OCC23)cc1OC (stereo unspecified),NF-kB SEAP reporter activity,[1]; [4],0.813
same,NF-kB SEAP reporter activity,[1]; [5],1.03
COc1ccc(C2OCC3C(c4cc(OC)c(OC)c(OC)c4)OCC23)cc1OC (stereo unspecified) (library stock concentration (final ~1000-fold dilution): 10 mM),NF-kB SEAP reporter activity,[2]; agonist: LPS (TLR4) 0.1 ug/mL,1.2
same,NF-kB SEAP reporter activity,[2]; [6],1
same,NF-kB SEAP reporter activity,[2]; [7],1.01
same,NF-kB SEAP reporter activity,[2]; [8],1.71
O=C(CCCN1CC=C(n2c(=O)[nH]c3ccccc32)CC1)c1ccc(F)cc1 (library stock concentration (final ~1000-fold dilution): 10 mM),NF-kB SEAP reporter activity,[2]; agonist: LPS (TLR4) 0.1 ug/mL,0.928
same,NF-kB SEAP reporter activity,[2]; [6],0.688
same,NF-kB SEAP reporter activity,[2]; [7],0.982
same,NF-kB SEAP reporter activity,[2]; [8],0.96
O=C(CCCN1CC=C(n2c(=O)[nH]c3ccccc32)CC1)c1ccc(F)cc1,NF-kB SEAP reporter activity,[1]; [4],1.01
same,NF-kB SEAP reporter activity,[1]; [5],1.05
O=C(O)c1cc(O)c2c(c1)C(C1c3cc(C(=O)O)cc(O)c3C(=O)c3c(OC4OC(CO)C(O)C(O)C4O)cccc31)c1cccc(OC3OC(CO)C(O)C(O)C3O)c1C2=O (stereo unspecified),NF-kB SEAP reporter activity,"[1]; library stock concentration (final ~1000-fold dilution): 2 mM, cytotoxicity flag (confluency mask): not cytotoxic, agonist: Imiquimod (TLR7) […]",0.679
same,NF-kB SEAP reporter activity,"[1]; library stock concentration (final ~1000-fold dilution): 2 mM, cytotoxicity flag (confluency mask): not cytotoxic, agonist: MPLA (TLR4) […]",1.04
same,NF-kB SEAP reporter activity,[1]; [4],0.764
same,NF-kB SEAP reporter activity,[1]; [5],1.05
O=C(O)c1cc(O)c2c(c1)C(C1c3cc(C(=O)O)cc(O)c3C(=O)c3c(OC4OC(CO)C(O)C(O)C4O)cccc31)c1cccc(OC3OC(CO)C(O)C(O)C3O)c1C2=O (stereo unspecified) (library stock concentration (final ~1000-fold dilution): 10 mM),NF-kB SEAP reporter activity,[2]; agonist: LPS (TLR4) 0.1 ug/mL,1.25
same,NF-kB SEAP reporter activity,[2]; [6],1.1
same,NF-kB SEAP reporter activity,[2]; [7],1.14
same,NF-kB SEAP reporter activity,[2]; [8],0.998
O=C(O)c1cc(O)c2c(c1)C(C1c3cc(C(=O)O)cc(O)c3C(=O)c3c(OC4OC(CO)C(O)C(O)C4O)cccc31)c1cccc(OC3OC(CO)C(O)C(O)C3O)c1C2=O (stereo unspecified) (library stock concentration (final ~1000-fold dilution): 2 mM),NF-kB SEAP reporter activity,[2]; agonist: LPS (TLR4) 0.1 ug/mL,1.05
same,NF-kB SEAP reporter activity,[2]; [6],1.1
same,NF-kB SEAP reporter activity,[2]; [7],1.14
same,NF-kB SEAP reporter activity,[2]; [8],1.05
COc1ccc2cc(CCC(C)=O)ccc2c1,NF-kB SEAP reporter activity,[1]; [4],1.04
same,NF-kB SEAP reporter activity,[1]; [5],1.13
COc1ccc2cc(CCC(C)=O)ccc2c1 (library stock concentration (final ~1000-fold dilution): 10 mM),NF-kB SEAP reporter activity,[2]; agonist: LPS (TLR4) 0.1 ug/mL,1.51
same,NF-kB SEAP reporter activity,[2]; [6],1.04
same,NF-kB SEAP reporter activity,[2]; [7],1.18
same,NF-kB SEAP reporter activity,[2]; [8],1.22
CCn1cc(C(=O)O)c(=O)c2ccc(C)nc21 (library stock concentration (final ~1000-fold dilution): 10 mM),NF-kB SEAP reporter activity,[2]; agonist: LPS (TLR4) 0.1 ug/mL,0.895
same,NF-kB SEAP reporter activity,[2]; [6],1.03
same,NF-kB SEAP reporter activity,[2]; [7],1.1
same,NF-kB SEAP reporter activity,[2]; [8],1.03
CCn1cc(C(=O)O)c(=O)c2ccc(C)nc21,NF-kB SEAP reporter activity,[1]; [4],0.92
same,NF-kB SEAP reporter activity,[1]; [5],1.04
CN(C)c1ccc(C(=O)NCCCCCCC(=O)NO)cc1,NF-kB SEAP reporter activity,"[1]; library stock concentration (final ~1000-fold dilution): 10 mM, cytotoxicity flag (confluency mask): cytotoxic (confluency <70% of control), agonist: Imiquimod (TLR7) […]",2.83
same,NF-kB SEAP reporter activity,"[1]; library stock concentration (final ~1000-fold dilution): 10 mM, cytotoxicity flag (confluency mask): cytotoxic (confluency <70% of control), agonist: MPLA (TLR4) […]",2.64
CN(C)c1ccc(C(=O)NCCCCCCC(=O)NO)cc1 (library stock concentration (final ~1000-fold dilution): 10 mM),NF-kB SEAP reporter activity,[3]; agonist: LPS (TLR4) 0.1 ug/mL,4.72
same,NF-kB SEAP reporter activity,[3]; [6],2.78
CCOC(=O)C(CCc1ccccc1)NC(C)C(=O)N1C(C(=O)O)CC2CCCC21 (stereo unspecified) (library stock concentration (final ~1000-fold dilution): 10 mM),NF-kB SEAP reporter activity,[2]; agonist: LPS (TLR4) 0.1 ug/mL,1.05
same,NF-kB SEAP reporter activity,[2]; [6],0.992
same,NF-kB SEAP reporter activity,[2]; [7],1.03
same,NF-kB SEAP reporter activity,[2]; [8],1.1
CCOC(=O)C(CCc1ccccc1)NC(C)C(=O)N1C(C(=O)O)CC2CCCC21 (stereo unspecified),NF-kB SEAP reporter activity,[1]; [4],0.92
same,NF-kB SEAP reporter activity,[1]; [5],0.824
